Reference: PubChem BioAssay AID493208 (National Center for Advancing Translational Sciences (NCATS), 2011)
Screen size: about 44,000 compounds; about 340 (0.77%) were called active. Another 5% or so got no clear call; they are omitted. The call rests on the fitted dose curve; in most records, active means well fitted inhibition curve with a large enough effect; inconclusive means small, poorly fitted or top-dose-only effect; inactive means flat fitted curve, though single readings scatter. This is one part of the list.

experiment: Acumen qHTS Assay for Inhibitors of the mTORC1 Signaling Pathway in MEF (Tsc2-/-, p53-/-) Cells: Sytravon; conditions: phospho-rpS6 immunofluorescence/PI, 24 h; series mostly up to 38.3 µM; activity change, negative = inhibition: at the top concentration; further: nearly all actives have a fitted effect of over 50% in size;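 on activity change, negative = inhibition: plate controls were DMSO for no effect and rapamycin for full effect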
Method in brief: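 Compounds act on Tsc2-/-, p53-/- fibroblasts carrying an empty vector for 24 h before fixation and dual staining for phospho-S6 and DNA (propidium iodide). Values are percentages of cells above a rapamycin-defined pS6/PI threshold.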
Potency means the concentration at half of the fitted maximal effect.

Activity change, negative = inhibition, inactive:
Cc1cc(C)c(C)c(OCC(=O)Nc2ccc(S(=O)(=O)Nc3nc(C)cc(C)n3)cc2)c1 0.785%, COc1ccccc1NC(=O)CCn1nc(-c2ccccc2OC)c2c(C)cc(C)nc21 1.19%, Cc1ccccc1NC(=O)Nc1nnc(N2CCCCCC2)s1 -6.19%, CCC(=O)N1CCc2cc(Br)cc(S(=O)(=O)CCC(=O)N3CCN(c4ccc(F)cc4)CC3)c21 0%, Cc1ccccc1OCC(=O)OCc1cc(=O)n2nc(C3CC3)sc2n1 -1.72%, O=C(CSC1=Nc2ccccc2N=C(c2ccc(F)cc2)C1)Nc1cccc(C(F)(F)F)c1 -6.3%, CCOC(=O)C1CCCN(C(=O)C2CCN(S(=O)(=O)c3c(C)noc3/C=C/c3ccccc3F)CC2)C1 (stereo unspecified) -1.45%, CCc1ccc(NC(=O)CC2C(=O)N(c3cccc(C)c3)C(=O)N2CCC(C)C)cc1 (stereo unspecified) 0.684%, COc1ccc(CC(=O)NCCc2sc3nc(-c4ccc(OC)cc4)nn3c2C)cc1 -0.767%, CCCN(CCC)CCCNC(=O)c1cn(CC)c2ccc(S(=O)(=O)N(C)C3CCCCC3)cc2c1=O 0.251%, CCc1ccc(OCc2cc(=O)n3c4c(sc3n2)CCCC4)cc1 -13.8%, COc1cccc(N2CCN(C(=O)C3Cc4ccccc4N3C(C)=O)CC2)c1 (stereo unspecified) 0.473%, O=C(C1CCC1)N1CCCc2cc(S(=O)(=O)N3CCN(c4ccccc4)CC3)ccc21 0.805%, Cc1cccc(-c2nc3ccccc3n2Cc2ccccc2)c1 -22.6%, CC(C)OC(=O)C(C(=O)C(F)(F)F)c1cc(NS(=O)(=O)c2ccc3c4c(cccc24)C(=O)N3)ccc1O (stereo unspecified) -16.4%, CCOC(=O)c1c(C)[nH]c(CCC(=O)Nc2c(C)cccc2CC)c1C -2.82%, CCNc1ncnc2c1nnn2C -0.492%, CCOC(=O)N1CCc2c(sc(NCc3cccc(F)c3)c2C(=O)Nc2ccc(OC)cc2OC)C1 1.67%, CCC(=O)Nc1ccccc1-c1nc2ccccc2n(CC(=O)c2ccc(Cl)cc2)c1=O 1.5%, COc1ccc2c(Sc3ccc(C)cc3)c(C(=O)NCc3ccc(F)cc3)[nH]c2c1 -0.862%, COc1ccccc1NC(=O)C1=C(C)Nc2nc(CCCO)nn2C1c1cccc(O)c1 (stereo unspecified) -21.1%, Cc1ccc(S(=O)(=O)N2CCCc3cc(NS(=O)(=O)c4cc(F)ccc4F)ccc32)cc1 16%, Cn1c(=O)c(=O)n(C)c2cc(S(=O)(=O)N3CCN(c4ccc(F)cc4)CC3)ccc21 -5.16%, COc1cc(C2CC(=O)c3cnc(N4CCN(CCO)CC4)nc3C2)cc(OC)c1OC (stereo unspecified) -22%, O=C(Nc1cccc(NC(=O)c2ccccc2F)c1)c1ccccc1 11.8%, O=C(Cn1cc(S(=O)(=O)N2CCCC2)c(S(=O)(=O)N2CCCC2)c1)Nc1ccccc1 -2.15%, CC(C)c1ccc(NC(=O)CC2NCCNC2=O)cc1 (stereo unspecified) -4.06%, O=C(CSc1nc2c(oc3ccccc32)c(=O)n1-c1ccccc1)Nc1ccccc1F -3.55%, CCCC(=O)Nc1cc(C(=O)NCc2ccccc2)ccc1S(=O)(=O)c1ccc(Cl)cc1 0.956%, O=C(Nc1nc2n(n1)C(c1ccc(F)cc1)C=C(c1ccccc1)N2)c1ccco1 (stereo unspecified) 1.58%, O=c1c(-c2cc(-c3ccccc3)nc3c2COc2ccc(Cl)cc2-3)coc2ccc(F)cc12 5.49%, Cc1c(Cl)cccc1NC(=O)c1ccc2c(c1)CCN2S(=O)(=O)c1ccccc1 -5.55%, Cc1c(C(=O)Nc2ccc(C(=O)O)cc2)nnn1-c1ccccc1 -21.2%, Cc1ccc(CN2CCCN(CC(=O)Nc3ccc(C)cc3C)S2(=O)=O)cc1 -4%, CN(C)CCNc1ncnc2c1cnn2-c1cccc(Cl)c1 -3.56%, CN(C)c1ccc(C(CNC(=O)c2ccccc2C(F)(F)F)N2CCOCC2)cc1 (stereo unspecified) 2.68%, COc1ccc(CNC(=O)C2CCCN(S(=O)(=O)c3cccc4nsnc34)C2)cc1 (stereo unspecified) -12%, COC(=O)c1c(NC(=O)c2nc(SCc3ccc(F)cc3)ncc2Cl)sc2c1CCCC2 -1.06%, CCOc1ccccc1-c1noc(CSc2nnc(-c3ccccc3)n2-c2ccc(F)cc2)n1 -0.927%, Cc1nn2c(=O)cc(COC(=O)Cc3ccccc3)nc2s1 -5.53%, Nc1c(C(=O)Nc2ccc(OC(F)(F)F)cc2)sc2nc(-c3ccncc3)ccc12 7.2%, CCC1CN(C(=O)N2CCC(C(=O)Nc3ccccc3F)CC2)c2ccccc2O1 (stereo unspecified) -2.11%, Cc1ccc(CCNC(=O)c2ccc3c(Cl)c4c(nc3c2)CCCC4)cc1 -5.56%, CCCC(=O)Nc1ccccc1OCc1cc(=O)n2cc(C)ccc2n1 1.3%, Cc1ccc(C)c(N2CCN(c3c(CN4CCCC4)c(=O)oc4ccccc34)CC2)c1 -1.35%, COc1ccccc1CNC(=O)c1ccc2nc(N3CCCCC3)sc2c1 1.5%, COc1ccc(NC(=O)CN2C(=O)COc3ccc(S(=O)(=O)N4CCCCCC4)cc32)cc1 -4.4%, O=C(Nc1cccc(Cl)c1Cl)c1cc(S(=O)(=O)NCc2ccc3c(c2)OCO3)ccc1F 14.8%, Cc1ccc(-n2c(=O)cc(N3CCN(c4ccccc4Cl)CC3)[nH]c2=O)cc1 0.925%, COc1cccc(Cn2c(Oc3cc(C)cc(C)c3)nc3c2c(=O)n(C)c(=O)n3C)c1 -15.6%, COc1ccc(CC(=O)N2CCc3cc(OC)c(OC)cc3C2COc2cc(C)cc(C)c2)cc1OC (stereo unspecified) -17%, Cc1nn(S(=O)(=O)c2ccc(Br)cc2)c(C)c1S(=O)(=O)N1CCCCCC1 0.789%, Cc1cc(C)cc(NC(=O)CCS(=O)(=O)c2cccc3nsnc23)c1 -19.6%, CC(=O)c1ccc(NS(=O)(=O)c2cccc(S(=O)(=O)c3ccc(Cl)cc3)c2)cc1 10.7%, CCOc1ccc(CCNC(=O)CN2CCN(Cc3ccc(Cl)cc3)C2=O)cc1OCC -12.5%, CCc1ccc(N(CC)C(=O)c2cc3c(=O)oc4ccc(C)cc4c3s2)cc1 1.67%, COc1cccc(NC(=O)C(=O)NCC(c2ccc3c(c2)OCO3)N2CCN(C)CC2)c1 (stereo unspecified) -16.8%, Cc1cccc(C)c1Nc1nn2c(=O)c3cc4c(cc3nc2s1)OCO4 -26.4%, COc1ccc(NC(=O)CCCSc2nc(-c3ccco3)cc(C(F)(F)F)n2)cc1OC -0.382%, CCCCN(CC)CCCNC(=O)c1cc2c(=O)[nH]c3ccccc3c2n1C -17.2%, COc1cccc(C(=O)Nc2cccc(OCc3cc(=O)n4c5c(sc4n3)CCCC5)c2)c1 -7.69%, CC(=O)Nc1ccc(NS(=O)(=O)c2c(C(=O)N3CCC(C)CC3)c(C)n(C)c2C)cc1 0%, CCc1ccc(-c2cn3c(n2)sc2cc(C(=O)NC4CCCCC4)ccc23)cc1 7.06%, COc1cccc(-c2nc(S(=O)(=O)c3ccc(Cl)cc3)c(NCc3ccccc3)o2)c1 -17.4%, COc1ccc2oc(=O)c(C(=O)NCCc3c(C)[nH]c4ccc(F)cc34)cc2c1 -2.97%, COCCNc1oc(-c2ccccc2)nc1S(=O)(=O)c1ccc(Br)cc1 9.91%, COc1ccc2sc(N(Cc3cccnc3)C(=O)c3ccc4c(c3)OCCO4)nc2c1 -19.8%, O=C(Nc1ccc(F)c(Cl)c1)N1CC=C(c2c[nH]c3ccccc23)CC1 -23.1%, CC(C)CCNC(=O)c1cc2cc(S(=O)(=O)N3CCCCC3)ccc2n1C 1.44%, CCC(=O)N1c2ccccc2CC1C(=O)NCCc1ccccc1 (stereo unspecified) 7.68%, Cc1ccc(N2CCN(C(=O)c3cnc(N4CCCCC4)c4ccccc34)CC2)c(C)c1 -17.3%, CSc1ncc(Cl)c(C(=O)Nc2c(C(=O)Nc3cccc(Cl)c3)oc3ccccc23)n1 4.22%, CCC(=O)Nc1ccccc1-c1nc2ccccc2n(CC(=O)c2ccc(C)cc2)c1=O -18%, COc1cccc(Cn2nnc3c(=O)[nH]c(C4CCN(C(=O)c5ccccc5Cl)CC4)nc32)c1 3.33%, CC1=C(C(N)=O)C(c2ccccc2Br)n2ncnc2N1 (stereo unspecified) 0.983%, O=C(NCc1ccccc1Br)c1cnc2sc(N3CCCCCC3)nn2c1=O 3.37%, COc1cc(OC)c(NC(=O)CCCn2nc(C)c3c(C)n(-c4ccccc4)nc3c2=O)cc1Cl -3.82%, COc1ccc(-n2nc(C(=O)N3CCCC(C)C3)c3c4ccccc4n(C)c3c2=O)cc1Cl (stereo unspecified) -11.8%, CCN(CC)c1nc2ccccc2nc1C(=O)Nc1cc(OC)c(OC)c(OC)c1 -0.408%, O=C(NC1CC(=O)N(c2ccccc2)C1)c1ccc(S(=O)(=O)N2CCCCC2)cc1 (stereo unspecified) -3.54%, Cc1nn(C(=O)c2ccc(Cl)cc2)c(C)c1S(=O)(=O)N1CCCCCC1 0.587%, Cc1nn2c(C)c(C(=O)NCc3ccco3)cnc2c1-c1ccccc1 -9.17%, Cc1ccc(N2CCn3c2nc2c3c(=O)n(CCCc3ccccc3)c(=O)n2C)cc1C 5.55%, O=c1[nH]c(=O)n(C2CCCCC2)c(O)c1C1=Nc2ccccc2SC(c2ccccc2)C1 (stereo unspecified) -15.8%, COc1ccc(OCC(=O)NCC(c2ccc(OC)cc2)N2CCCCC2)cc1 (stereo unspecified) -2.64%, COc1ccc(C2C(C(=O)Nc3cccnc3)=C(C)Nc3nc(-c4ccccc4)nn32)cc1OC (stereo unspecified) -4.26%, COc1ccccc1NC(=O)C1=C(C)Nc2nc(SCc3ccccc3Cl)nn2C1c1ccccn1 (stereo unspecified) -2.99%, CN(C)c1ccc(/C=C/c2noc(-c3ccccc3O)n2)cc1 -4.07%, CSc1ccc(CCNS(=O)(=O)c2ccc3c(c2)C(C)(C)C(=O)N3C)cc1 10%, O=c1c2ccccc2n2c(-c3ccc(Cl)cc3)nnc2n1CCc1ccccc1 -2.39%, Cc1ccc(C(c2cccc(Br)c2)c2c(C)[nH]c3ccccc23)s1 (stereo unspecified) -23.1%, COc1cc(OC)cc(C(=O)N2CCN(C(=O)COc3ccccc3)CC2)c1 7.74%, CC(C)c1ccc(NC(=O)C(C)N(c2ccccc2)S(C)(=O)=O)cc1 (stereo unspecified) 4.03%, CC(C)C(NS(=O)(=O)c1ccc2c(c1)oc(=O)n2C)C(=O)NCCc1ccccc1 (stereo unspecified) -0.586%, COCCCNc1nc(NCc2cccc(Cl)c2)c2cnn(C)c2n1 10.6%

Potency, active:
CCOC(=O)c1ccc(N2C(=O)c3n[nH]c(-c4ccco4)c3C2c2ccc(OCC)cc2)cc1 (stereo unspecified) 13.1 µM
